PubChem BioAssay AID504332 (National Center for Advancing Translational Sciences (NCATS), 2011)
Out of some 350,000 compounds screened, about 31,000 (8.9%) were called active. The inconclusive results got no clear call from the source; some entries with a clear call stand among them for comparison. Calls follow the shape of the dose curve; as a rule, active = well fitted inhibition curve with a large enough effect; inconclusive = small, poorly fitted or top-dose-only effect; inactive = no such curve, though single readings can be large or run the other way. Potencies of inconclusive entries are doubtful fits and often do not repeat.

Each molecule was assayed against Histone-lysine N-methyltransferase EHMT2 (Homo sapiens) (UniProt Q96KQ7) (assay: qHTS Assay for Inhibitors of Histone Lysine Methyltransferase G9a). Settings: G9a H3K9 monomethylation, AlphaScreen, 2 h; activity, negative = inhibition: at 59 µM (top of the series) unless noted.
Summary of the method: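 Methyltransferase reactions run at room temperature for 2 h (20 nM enzyme, 500 nM biotin-H3K9 peptide, 20 uM SAM) after a 15 min compound preincubation; product detected by AlphaScreen beads and anti-H3K9me1 antibody.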
% is scaled to controls: 0 for no effect and ±100 for the full control effect; potency is read from the fitted curve at half-maximal effect; tags tell the direction and shape of the fitted curve.
Also: nearly all actives have a fitted effect of over 75% in size.

Sequence of UniProt Q96KQ7 (Q96KQ7 whole entry, looked up): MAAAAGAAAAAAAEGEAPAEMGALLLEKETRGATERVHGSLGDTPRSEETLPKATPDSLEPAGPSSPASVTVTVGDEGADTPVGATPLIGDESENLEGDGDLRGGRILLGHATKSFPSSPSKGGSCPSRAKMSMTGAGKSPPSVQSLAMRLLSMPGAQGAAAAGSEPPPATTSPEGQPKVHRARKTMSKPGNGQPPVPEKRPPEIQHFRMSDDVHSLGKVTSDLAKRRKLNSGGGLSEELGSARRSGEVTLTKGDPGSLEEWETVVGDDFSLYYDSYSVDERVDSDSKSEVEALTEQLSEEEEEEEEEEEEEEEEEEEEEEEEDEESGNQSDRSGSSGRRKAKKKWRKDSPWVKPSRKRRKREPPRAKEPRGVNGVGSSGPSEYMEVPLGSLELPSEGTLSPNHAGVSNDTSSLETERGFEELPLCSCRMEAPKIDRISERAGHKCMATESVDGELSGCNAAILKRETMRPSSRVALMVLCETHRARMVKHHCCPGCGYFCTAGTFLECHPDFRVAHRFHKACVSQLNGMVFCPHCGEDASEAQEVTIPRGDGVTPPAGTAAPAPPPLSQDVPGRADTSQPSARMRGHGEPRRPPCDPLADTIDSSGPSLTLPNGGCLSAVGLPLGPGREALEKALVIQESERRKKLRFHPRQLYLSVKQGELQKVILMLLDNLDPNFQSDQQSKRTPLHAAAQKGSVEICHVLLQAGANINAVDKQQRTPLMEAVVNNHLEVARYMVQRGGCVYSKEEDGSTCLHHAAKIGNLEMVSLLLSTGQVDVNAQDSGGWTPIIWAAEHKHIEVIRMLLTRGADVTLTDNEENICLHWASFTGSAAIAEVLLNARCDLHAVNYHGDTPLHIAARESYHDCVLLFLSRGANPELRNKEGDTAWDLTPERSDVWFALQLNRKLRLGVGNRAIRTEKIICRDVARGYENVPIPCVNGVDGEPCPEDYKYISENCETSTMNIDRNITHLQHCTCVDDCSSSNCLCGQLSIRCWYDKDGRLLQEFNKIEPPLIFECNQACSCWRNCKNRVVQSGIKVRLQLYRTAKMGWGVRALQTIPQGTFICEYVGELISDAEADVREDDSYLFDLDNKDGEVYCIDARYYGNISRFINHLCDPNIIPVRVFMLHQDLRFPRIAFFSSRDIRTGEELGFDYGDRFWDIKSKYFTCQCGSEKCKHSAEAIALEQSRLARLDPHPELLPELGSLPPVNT

Compound	Potency	activity, negative = inhibition
Cc1sc2ncnc(OCC(=O)N3CCN(C(=O)c4ccco4)CC3)c2c1C	inconclusive: 100 µM [inhibitor, partial curve, poor fit]	
CC(Sc1n[nH]c(N)n1)c1nc2scc(-c3cccs3)c2c(=O)[nH]1 (configuration not stated)	inconclusive: 2.82 µM [inhibitor, partial curve, poor fit]	
Cc1occc1C(=O)/C(C#N)=C/c1ccc(O)c(Br)c1	active: 50.1 µM	
S=C(NCCC1=CCCCC1)Nc1ccc(Cl)cc1		inactive: -13.2%
Cc1ccc(NC(=S)NNC(C)(C)C)cc1	active: 44.7 µM	
Cc1ccc(OCCC(=O)OCC(=O)Nc2ccc(N3CCOCC3)cc2)cc1		inconclusive: -51.2% [inhibitor] [at 2.33 µM]
COC(=O)c1[nH]c(C)c(/C(O)=C2\C(=O)C(=O)N(CCN3CCOCC3)C2c2ccccc2OC)c1C (configuration not stated)	active: 50.1 µM	
Cc1ccc(OCC(=O)Nc2cc(S(=O)(=O)N3CCCCC3)ccc2N2CCN(C)CC2)c(C)c1	active: 44.7 µM	
Cc1cccc(NC(=O)C2CCCN2S(=O)(=O)c2cccc3cccnc23)c1 (configuration not stated)	inconclusive: 6.31 µM [inhibitor, full curve]	
Cc1ccc(-c2nnc(Nc3ccc(Cl)cc3)c3ccccc23)cc1S(=O)(=O)N1CCOCC1		inactive: -27.6%
O=C(Nc1c(C(=O)N2CCC(N3CCCCC3)CC2)oc2ccccc12)c1c(F)cccc1F	inconclusive: 89.1 µM [inhibitor, single point]	
Cc1cccc(Nc2nnc(C)c(=O)n2N)c1		inconclusive: -63.5% [inhibitor] [at 12.7 µM]
CC(NC(=O)CCc1nnc(-c2ccc(-c3ccccc3)cc2)o1)c1nc2ccccc2[nH]1 (configuration not stated)	inconclusive: 44.7 µM [inhibitor, partial curve]	
CN1C(=O)/C(=C/c2ccccc2OCc2ccccc2)NC1=S	inconclusive: 4.47 µM [inhibitor, full curve, poor fit]	
COc1cc(NC(=S)NCCc2ccc(S(N)(=O)=O)cc2)c(OC)cc1Cl	inconclusive: 50.1 µM [inhibitor, partial curve, poor fit]	
O=C(Nc1ccc(OC(F)(F)F)cc1)c1cnc2n(c1=O)CCS2	inconclusive: 50.1 µM [inhibitor, partial curve, poor fit]	
O=C(C1CCN(c2ccc(N3CCOCC3)nn2)CC1)N1CCc2ccccc2C1	inconclusive: 89.1 µM [inhibitor, partial curve, poor fit]	
Cc1ccc(NC(=O)Cn2c(=O)n(CCC(=O)NCCc3ccccc3)c(=O)c3ccccc32)cc1		inactive: 3.38%
CC(=O)Nc1ccc(NC(=O)C(Cc2ccccc2)N2Cc3ccccc3C2=O)cc1 (configuration not stated)		inactive: -27.7%
O=C(CCc1ccccc1)OCCN1CCOCC1	inconclusive: 56.2 µM [inhibitor, partial curve, poor fit]	
Cc1cccc(N2CCN(C(=O)c3c(C)oc4nc(C)nc(N5CCCC5)c34)CC2C)c1 (configuration not stated)	inconclusive: 31.6 µM [inhibitor, partial curve, poor fit]	
Cc1ccc(Cl)cc1N1CCN(C(=O)c2cn(C)c3ccc(S(=O)(=O)N(C)C4CCCCC4)cc3c2=O)CC1		inactive: 14%
CCOc1ccc(CCNC(=O)C(C)n2nc(C)n3c(cc4occc43)c2=O)cc1OCC (configuration not stated)	inconclusive: 6.31 µM [inhibitor, single point]	
CCC(=O)Nc1nnc(-c2ccccn2)o1	active: 4.47 µM	

Compound	Potency	activity, negative = inhibition
Cc1cccc(NC(=S)NCc2ccc3c(c2)OCO3)c1C	inconclusive: 0.794 µM [inhibitor, partial curve, poor fit]	
COc1cc(/C=C2\N=C(C)OC2=O)cc(Cl)c1OC(C)=O	active: 39.8 µM	
CCOC(=O)C1(Cc2ccccc2)CCCN(Cc2ccccn2)C1 (configuration not stated)		inactive: 6.83% [at 0.501 µM]
CN(Cc1cccs1)CC(O)COCc1ccco1 (configuration not stated)	active: 44.7 µM	
CCOc1cc(-c2ccc(N)c(OCC)c2)ccc1N		inconclusive: -98.9% [inhibitor]
COC(=O)Cn1c(=O)c(=O)n(CC(=O)OC)c2ccccc21		inactive: 15%
O=C(CCC(=O)c1ccc(Oc2ccccc2)cc1)Nc1cccc(Cl)c1Cl		inactive: 85.2%
COc1ccccc1NC(=O)CC1C(=O)Nc2ccccc2N1C(=O)c1ccccc1 (configuration not stated)		inactive: 4.11%
CCNc1ncc2nc(-c3ccc(Cl)cc3)c(=O)n(C[C@H]3CCCO3)c2n1		inactive: 9.44% [at 0.501 µM]
CC1CCC(N2CC(=O)N(C3CCCC3)C(c3ccc(Cl)cc3)C2=O)CC1 (configuration not stated)		inactive: 0.464%
COc1ccc(-c2ccc3c(c2)S(=O)(=O)c2cccc(C(=O)NC[C@@H]4CCCO4)c2C3=O)cc1OC		inactive: 7.29% [at 2.33 µM]
Cc1ccc(C(=O)N2CCc3cc4c(cc3C2C)OCCCO4)cc1 (configuration not stated)	inconclusive: 7.08 µM [inhibitor, full curve, poor fit]	
O=S(=O)(/N=C(/Nc1cccc2ccccc12)c1ccccc1)c1ccc(F)cc1		inactive: -12.5% [at 102 µM]
CCN(CC)CCN(C(=O)CN1C(=O)c2ccccc2C1=O)c1nc2cc3c(cc2s1)OCO3	inconclusive: 89.1 µM [inhibitor, single point]	
COc1ccc(S(=O)(=O)Nc2cc(S(=O)(=O)c3ccccc3)c(O)cc2C)cc1	inconclusive: 89.1 µM [inhibitor, single point]	
Cc1nc(N2CCN(C)CC2)c2sc(=S)n(C)c2n1		inactive: -3.3% [at 102 µM]
COC(=O)c1nc(Cl)c(Cl)c(N)c1Cl		inactive: 5.47% [at 102 µM]
CN(C)c1ccc(/C=N/NC(=O)c2ccc3c(c2)OCCO3)cc1		inactive: -2.65% [at 102 µM]
Cc1ccc(C)c(S(=O)(=O)NCCOC(=O)Nc2sc(=S)n(C)c2C)c1	inconclusive: 14.1 µM [inhibitor, full curve, poor fit]	
COC(=O)c1ccc(NC(=O)CSc2nc3[nH]ncc3c(=O)[nH]2)cc1	inconclusive: 50.1 µM [inhibitor, partial curve]	
Cc1nc(SCCC(C)C)c([N+](=O)[O-])[nH]1	active: 28.2 µM	
Oc1ccc(CN2CCc3ccccc3C2)c2cccnc12	inconclusive: 35.5 µM [inhibitor, single point]	
CN1CCN(c2ccccc2NC(=O)c2cc3ccccc3o2)CC1	inconclusive: 6.31 µM [inhibitor, partial curve, poor fit]	
COc1ccc(-c2nn(C)c3sc(C(=O)N4CCN(c5ccccc5F)CC4)cc23)cc1OC	inconclusive: 8.91 µM [inhibitor, partial curve, poor fit]	

Compound	Potency	activity, negative = inhibition
O=C1CN(C(=O)COc2ccc([N+](=O)[O-])cc2Cl)c2ccccc2N1		inactive: -5.9% [at 12.7 µM]
COc1cc(OC)nc(NC(=O)CN2CCN(c3ccc(F)cc3)CC2)n1		inactive: -1.77% [at 12.7 µM]
O=C(c1ccco1)N1CCN(C2CC(=O)N(c3ccccc3)C2=O)CC1 (configuration not stated)	inconclusive: 79.4 µM [inhibitor, single point]	
O=C(NC1CCCC1)C(c1ccccn1)N(C(=O)c1csnn1)C1CCCCC1 (configuration not stated)		inactive: -26.4%
Cc1c(C(=O)O)cccc1-c1ccc(/C=C2/NC(=O)N(c3ccccc3)C2=O)o1	inconclusive: 79.4 µM [inhibitor, single point]	
COc1cc(C2C(C(=O)c3ccc(C)o3)=C(O)C(=O)N2c2cc(C)on2)ccc1OCc1ccccc1 (configuration not stated)	active: 44.7 µM	
CC(=O)Nc1c(O)nc(SCC(=O)Nc2c(C)cccc2C)[nH]c1=O	inconclusive: 89.1 µM [inhibitor, single point]	
C/C=C(\C)C(=O)N1CCC(C(=O)c2ccccc2)CC1		inactive: 25.7% [at 102 µM]
CN1CCO/C1=C(\C(Cl)=C(Cl)Cl)[N+](=O)[O-]	active: 20 µM	
CCOC(=O)C1=C(C)Nc2ccc(C)cc2S1	inconclusive: 39.8 µM [inhibitor, single point]	
CCOC(=O)c1cc(=O)n(-c2ccc(Cl)cc2C)[nH]1	active: 12.6 µM	
Cc1cc(C(=O)OCC(=O)Nc2nnc(C(C)C)s2)c2ccccc2n1	inconclusive: 3.55 µM [inhibitor, full curve]	
CN(C)c1ccc(C(=O)NCC2CCCO2)cc1 (configuration not stated)	inconclusive: 28.2 µM [inhibitor, single point]	
COc1cccc(/C=C/c2n[nH]c(=O)c(C#N)c2C)c1	inconclusive: 89.1 µM [inhibitor, single point]	
Cc1cnc(NC(=O)Nc2ccc(OCc3ccccc3)cc2)c(Br)c1		inactive: -0.937% [at 102 µM]
NC(=S)N/N=C1\CCSc2ccc(Cl)cc21	inconclusive: 79.4 µM [inhibitor, single point]	
CCC(=O)Nc1ccc(N2CCOCC2)c(S(=O)(=O)Nc2ccc(Cl)cc2)c1	inconclusive: 1.12 µM [inhibitor, full curve, poor fit]	
COc1ccc(/C=N/N2C(=O)CSC2=S)cc1	inconclusive: 28.2 µM [inhibitor, single point]	
Cc1ccc(C)c(N=Nc2nc3ccccc3n2C)c1		inactive: 29.8% [at 0.501 µM]
C=CCn1c(SCC(=O)O)nnc1-c1cccs1	inconclusive: 56.2 µM [inhibitor, partial curve, poor fit]	
CCOC(=O)C1=C(N)Oc2cc(O)ccc2C1c1ccccc1 (configuration not stated)		inactive: 3.37% [at 0.501 µM]
O=C(NC1CCCCC1)N(Cc1nc2ccccc2c(=O)[nH]1)C1CCCCC1	active: 28.2 µM	
CC(/C=C1\SC(=S)N(c2ccc(C(=O)O)cc2)C1=O)=C\c1ccccc1	active: 31.6 µM	
Cc1ccc(-c2nc3sccn3c2Nc2ccccc2C)cc1	active: 12.6 µM	
